Laboratory results: the RNAGym collection of RNA variant scans (doi:10.1093/nar/gkz1192)
Read counts are not given, so values of variants with three or more changes are uncertain.

B1: CPEB3 Ribozyme (parent)
chain: UAACAGGGGGCCACAGCAGAAGCGUUCACGUCGCAGCCCCUGUCAGAUUCUGGUGAAUCUGCGAAUUCUGCUGUAUAUCUC

Variants of: B1
Assay: self-cleavage, relative activity (ratio to wild type); higher = more cleavage; in vitro, sequencing
Procedure, shortened: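 Libraries of CPEB3 self-cleaving ribozyme mutants came from rounds of error-prone PCR and carried barcodes, which DNA sequencing matched to variants. In vitro transcription used T7 RNA polymerase at 37°C for 5 hours, with a further 15 min in DNase I before EDTA stopped the reaction; the ribozymes cleaved during both steps. The RNA was reverse transcribed with template switching and sequenced on Illumina. Relative activity is the cleaved/total read fraction of a variant divided by that of the unmutated ribozyme, averaged over three batches with at least 5 reads.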
With UAACAGGGGGCCACAGCGGAAGCGUUCACGUCGCAGCCCCUGCCCGAUUCUGGUGAGCCUGCAAAUUCUGCUGUAUAUCUC [A18G U43C A45C A57G U58C G63A] the self-cleavage was 0.
With UAACAGGGGGCCACAGCGGAAGCGUUCACGUCGCAGCCCCUGCCGGAUUCUGGUGAAUCUGCGAAUCCUGCUGUAUAUCUC [A18G U43C A45G U67C] the self-cleavage was 0.38.
Work on UAACAGGGGGCCACAGCGGAAGCGUUCACGUCGCAGCCCCUGCCUGAUUCUGGUGAAUCUGCGAAUUCUACUGUAUAUCUC [A18G U43C A45U G70A] yielded a self-cleavage of 0.1.
With UAACAGGGGGCCACAGCGGAAGCGUUCACGUCGCAGCCCCUGCCAGAUUCUGGUGCAUCUGCGAAUUCUGCUGUAUAUCUC [A18G U43C A56C] the self-cleavage was 0.14.
Variant UAACAGGGGGCCACAGCGGAAGCGUUCACGUCGCAGCCCCUGCCAGAUUCUGGUGGAUCCGCGAAUUCUGCUGUGUAUCUC [A18G U43C A56G U60C A75G] has a self-cleavage of 0.06.
Variant UAACAGGGGGCCACAGCGGAAGCGUUCACGUCGCAGCCCCUGCCAGAUUCUGGUGUAUCUGCGAAUUCUGCCGUAUAUCUC [A18G U43C A56U U72C] has a self-cleavage of 0.11.
For UAACAGGGGGCCACAGCGGAAGCGUUCACGUCGCAGCCCCUGCCAGAUUCUGGUGACUCUGCGAAUCCUGCUGUAUAUCUC [A18G U43C A57C U67C], the self-cleavage was 0.11.
With UAACAGGGGGCCACAGCGGAAGCGUUCACGUCGCAGCCCCUGCUAGAACCUGGUGAAUCUGGGAAUUCUGCUGUAUGUCUC [A18G U43C C44U U48A U49C C62G A77G] the self-cleavage was 0.13.
UAACAGGGGGCCACAGCGGAAGCGUUCACGUCGCAGCCCCUGCCAGAUUCUGGUGAAUCUGCGAAUUAUGCUGUAUAUCUC [A18G U43C C68A] gave a self-cleavage of 0.15.
UAACAGGGGGCCACAGCGGAAGCGUUCACGUCGCAGCCCCUGCCAUAUUCUGGGGAAUCAGCGAAUUCUGCUGUAUACCUC [A18G U43C G46U U54G U60A U78C] gave a self-cleavage of 0.04.
UAACAGGGGGCCACAGCGGAAGCGUUCACGUCGCAGCCCCUGCCAGACUCUGAUGAAUCUGCGUAUUCUGCUGUAUAUCUC [A18G U43C U48C G53A A64U] showed a self-cleavage of 0.11.
Work on UAACAGGGGGCCACAGCGGAAGCGUUCACGUCGCAGCCCCUGCCAGACUCUGGUGAACCUGCGAAUUCUGCUGUGUAUCUC [A18G U43C U48C U58C A75G] yielded a self-cleavage of 0.05.
Work on UAACAGGGGGCCACAGCGGAAGCGUUCACGUCGCAGCCCCUGCCAGAUUCUGGCGAAUCUGCGAAUCCUGCUGUAUAUCUC [A18G U43C U54C U67C] yielded a self-cleavage of 0.11.
For UAACAGGGGGCCACAGCGGAAGCGUUCACGUCGCAGCCCCUGCCAGAUUCUGGUGAAUCAGCGAAUUCUGCUGCGUAUCUC [A18G U43C U60A U74C A75G], the self-cleavage was 0.07.
For UAACAGGGGGCCACAGCGGAAGCGUUCACGUCGCAGCCCCUGCCAGAUUCUGGUGAAUCCGCGAGUUCAGCUGUAUAUCCC [A18G U43C U60C A65G U69A U80C], the self-cleavage was 0.06.
UAACAGGGGGCCACAGCGGAAGCGUUCACGUCGCAGCCCCUGGCAGAAUCUGGUGAAUCUGCGAAUUCUGCUGUAUAUCUC [A18G U43G U48A] showed a self-cleavage of 0.23.
With UAACAGGGGGCCACAGCGGAAGCGUUCACGUCGCAGCCCCUGUCAGACUCUGGUGGAUCUGCGAAUUCUACUGUAUAUCUC [A18G U48C A56G G70A] the self-cleavage was 0.16.
In the case of UAACAGGGGGCCACAGCGGAAGCGUUCACGUCGCAGCCCCUGUCAGACUCUGGUAAAUCUGCGAAUUCUGCUGUGUAUCUC [A18G U48C G55A A75G], the self-cleavage is reported as 0.14.
Work on UAACAGGGGGCCACAGCGGAAGCGUUCACGUCGCAGCCCCUGUCAGACUCUGGUGAAACUGCGAAUUCUGCUGUAUAUCUC [A18G U48C U58A] yielded a self-cleavage of 0.21.
UAACAGGGGGCCACAGCGGAAGCGUUCACGUCGCAGCCCCUGUCAGACUCUGGUGAACCUGAGAAUUCUGCUGUUUAUCUC [A18G U48C U58C C62A A75U] showed a self-cleavage of 0.16.
UAACAGGGGGCCACAGCGGAAGCGUUCACGUCGCAGCCCCUGUCAGACUCUGGUGAAUCUGCGAAUUCCGCUGUAUAUCUC [A18G U48C U69C] gave a self-cleavage of 0.8.
UAACAGGGGGCCACAGCGGAAGCGUUCACGUCGCAGCCCCUGUCAGACUCUGGUGAAUCUGCGAAUUCUGCUGUAUAUCCC [A18G U48C U80C] showed a self-cleavage of 0.56.
UAACAGGGGGCCACAGCGGAAGCGUUCACGUCGCAGCCCCUGUCAGAUACUGGUGUAUCUGCGAAUCCUGCUGUAUAUCUC [A18G U49A A56U U67C] showed a self-cleavage of 0.13.
Work on UAACAGGGGGCCACAGCGGAAGCGUUCACGUCGCAGCCCCUGUCAGAUACUGGUGAAUCUGCGAAUCCUGCUGUAUAUCUC [A18G U49A U67C] yielded a self-cleavage of 0.15.
Work on UAACAGGGGGCCACAGCGGAAGCGUUCACGUCGCAGCCCCUGUCAGAUACUGGUGAAUCUGCGAAUCCUGCUGUAUGUCUC [A18G U49A U67C A77G] yielded a self-cleavage of 0.1.
With UAACAGGGGGCCACAGCGGAAGCGUUCACGUCGCAGCCCCUGUCAGAUACUGGUGAAUCUGCGAAUUCUGCAGUAUAUCUC [A18G U49A U72A] the self-cleavage was 0.15.
UAACAGGGGGCCACAGCGGAAGCGUUCACGUCGCAGCCCCUGUCAGAUACUGGUGAAUCUGCGAAUUCUGCUGUAUACCUC [A18G U49A U78C] showed a self-cleavage of 0.34.
With UAACAGGGGGCCACAGCGGAAGCGUUCACGUCGCAGCCCCUGUCAGAUCCUGGUGUAUCUGCGUAUUCUGCUGUAUAUCUC [A18G U49C A56U A64U] the self-cleavage was 0.12.
Work on UAACAGGGGGCCACAGCGGAAGCGUUCACGUCGCAGCCCCUGUCAGAUCCUGGUGAAUGUGCGAGUUCUGCUGCAUACCUC [A18G U49C C59G A65G U74C U78C] yielded a self-cleavage of 0.13.
Variant UAACAGGGGGCCACAGCGGAAGCGUUCACGUCGCAGCCCCUGUCAGAUCCUGGUGAAUCUGCGAAUUCUGCUGUAUAUCUU [A18G U49C C81U] has a self-cleavage of 0.19.
UAACAGGGGGCCACAGCGGAAGCGUUCACGUCGCAGCCCCUGUCAGAUCCGGGUGUAUCUGCGAAUUCUGCUGUAUAUCUC [A18G U49C U51G A56U] showed a self-cleavage of 0.44.
UAACAGGGGGCCACAGCGGAAGCGUUCACGUCGCAGCCCCUGUCAGAUCCUGGUGAAUCUGCGAAUUCUGCCGUAUAUCUC [A18G U49C U72C] showed a self-cleavage of 0.32.
Variant UAACAGGGGGCCACAGCGGAAGCGUUCACGUCGCAGCCCCUGUCAGAUCCUGGUGAAUCUGCGAAUUCUGCUGCAUAUCUC [A18G U49C U74C] has a self-cleavage of 0.24.
UAACAGGGGGCCACAGCGGAAGCGUUCACGUCGCAGCCCCUGUCAGAUCCUGGUGAAUCUGCGAAUUCUGCUGUAUAUCCC [A18G U49C U80C] showed a self-cleavage of 0.29.
